Laboratory results from the supplement of paper PMC3334620.
In all, about 33,000 sequences were measured (“E-score (-0.5 to 0.5)”: median about -0.017, highest 2% from about 0.3 on). The list shows a part of the results.

Molecular target: T1, Sut1 (UniProt P53032)
T1 sequence: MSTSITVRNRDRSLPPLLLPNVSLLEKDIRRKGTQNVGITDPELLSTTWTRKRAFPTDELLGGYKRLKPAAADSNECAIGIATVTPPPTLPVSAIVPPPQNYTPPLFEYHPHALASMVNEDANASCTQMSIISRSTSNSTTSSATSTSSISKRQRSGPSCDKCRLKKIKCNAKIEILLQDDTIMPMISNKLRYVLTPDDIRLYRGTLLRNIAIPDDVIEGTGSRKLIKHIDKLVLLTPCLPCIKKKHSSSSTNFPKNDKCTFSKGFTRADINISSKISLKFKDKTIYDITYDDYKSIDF
Assay: PBM E-score (8-mer binding enrichment) (E-score (-0.5 to 0.5)); higher = stronger / more preferred TF binding; most listed sequences are background and not binding sites
Settings: protein concentration: 200 nM; construct: GST-full length
Procedure, shortened: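 E-scores (a modified Wilcoxon-Mann-Whitney statistic) were assigned by the Universal PBM Analysis Suite to every ungapped eight-base word pooled with its reverse complement. The input came from universal all-10-mer Agilent arrays made double-stranded by primer extension and probed with GST-tagged yeast transcription factors at about 100-200 nM. Fluorescent anti-GST detected bound protein, and masliner normalised the scans.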

Sequence | PBM E-score
CGCAATCA | 0.149
CAGGTACG | -0.227
CTATAAGC | -0.0415
GAGACATC | -0.0485
GACTACTA | 0.107
ATGGCTAC | 0.0799
CAAGCGTC | -0.147
AGGCGGGA | -0.208
CATGCGGG | -0.175
GCAAGTCC | 0.109
AACATGCC | 0.0872
ATTACCAA | 0.0498
CCGCTACA | -0.107
GGTACCCA | -0.19
AAGGGCCG | -0.146
CTCGGGCA | -0.0064
ATGACTCC | 0.241
CGAGCCGA | -0.184
AGACCATA | 0.00939
CTTAGTGA | 0.0413
CTCTCCTC | -0.374
ACCCGCGG | 0.0784
CGTTCTAC | -0.0333
AGAAAGCC | 0.0582
AAAGGGAT | 0.0685

Sequence | PBM E-score
AGCCTCGA | -0.185
GCTTACAA | 0.0636
AGTCACCG | -0.192
TACCCGCA | 0.0402
CAATGGAG | -0.0112
CAAGAAAA | 0.24
AGCAGCCA | -0.21
TAATGTAA | 0.28
AGAAACCC | 0.0854
CCCTGAAG | -0.263
GACTTGAA | 0.274
CCCTGGGA | -0.325
CAACTACA | 0.181
ATGTACCA | 0.0648
GCCAGCCA | -0.233
CGGTGGAC | -0.0934
CCTCCTCC | -0.0996
GATGTGAC | -0.0732
CACTCGAG | -0.0559
GATCGATC | -0.383
GACATGGA | -0.023
CCTGGAGA | -0.172
CCCCATAC | -0.232
CCTTGTAC | 0.02
AGTTTTGG | 0.147

Sequence | PBM E-score
AGCTCAGG | -0.0171
CGTGGTAG | -0.156
AAATCCGA | 0.203
GTGACCTA | -0.0607
CGCTGATC | 0.0462
AGCAATTG | 0.175
ACGCAGCT | -0.137
GCGGTCTA | -0.0531
CCAAGGTC | -0.0187
CATCCAGG | -0.172
GGAACCAC | -0.147
AGCGTATA | 0.0766
AAGCCGGC | -0.0295
CACTATAA | -0.0412
ATATACTC | 0.197
CATGCGTA | -0.0829
AGGGCATC | -0.342
AATACTAA | 0.142
TGCACGCA | -0.215
CCAAGAAA | 0.241
AACGTTCA | -0.107
GGTAGGAA | -0.0664
ATCAAAAT | 0.0556
TAACCGAA | 0.153
CCGTCGCC | 0.0379

Sequence | PBM E-score
ACGGACTA | 0.431
GGTGAATA | 0.0691
AAACAGAC | 0.145
ATCTGATC | 0.0604
CGCTTAAG | -0.181
AAGACGAT | 0.0734
ATGAGCAA | 0.0991
GCGTACTA | -0.0972
AGCGCGCC | -0.013
AGGACAGC | -0.111
GACACCCC | -0.179
CACTAACC | 0.0907
ACAAGTGA | 0.016
CGAAGTGA | -0.0287
GCACGAGC | -0.249
ACGTTCGG | 0.0303
AGAAACAT | 0.14
GCATAGAC | -0.156
AGGGACCA | -0.223
AGTCTACC | -0.165
ACTGTTAG | -0.231
GCTCCGCC | 0.0486
AGAAACTC | 0.225
CCGGTCAC | -0.102
CTCAACTC | 0.0571

Sequence | PBM E-score
ACCATCGG | 0.0205
AGCGCACT | -0.203
GCTACTCA | 0.0293
ATACAGGA | 0.154
AACGATCT | -0.0568
ACCGCGTA | 0.0123
CCAACGGA | 0.207
CCGTAAAG | 0.1
AAATCATG | 0.129
CTGGTGGA | -0.2
GGCGCCCA | -0.104
ATTCAGCA | 0.0348
CTTTTCAA | 0.198
CAAAGAGC | 0.0931
GGAGCCCC | -0.0999
GAAAATAC | 0.184
CGTAGACA | 0.0239
TGCCCCAA | -0.0828
GAGGTTAC | -0.0115
CCTTGTGC | -0.286
CGCCGAGC | 0.0158
CAGTATAC | 0.0389
AACGAATG | 0.11
CGGGGTTC | 0.398
CAAATACG | 0.0615

Sequence | PBM E-score
CTAAATGC | 0.126
GGGGGAAA | -0.0546
AAAGGGAA | 0.0494
ATTAGAAG | 0.211
CAACAGAA | -0.0506
ATCCGAGG | -0.053
AGGTTGCA | 0.137
CAGGCCAG | -0.221
CCAGGAGG | -0.301
AAATCGAA | 0.0216
CAGACAAG | 0.00811
GATGGTTA | 0.0553
CCAAAATA | 0.152
ATGCGAAG | -0.088
AAAGGTAC | 0.00948
AATCGATG | 0.107
ATACTGAG | 0.0977
CATGTCAC | -0.0522
TCCCCCGA | -0.141
AGACTGCA | -0.207
AGCAGGTC | -0.176
ATCACTCG | 0.00678
CCAGGATC | -0.201
CCTAAAGG | -0.132
GTTTTAGA | 0.0546

Sequence | PBM E-score
AGCTGCAG | 0.0539
CATCTGTC | -0.171
CCCAAATC | -0.00206
CCAGTCCA | -0.183
AACAGGAA | 0.0176
ATGTTAGA | 0.0706
CTATTATA | 0.207
GGAGCGCC | -0.169
CCTCCGAC | 0.0212
CCACTACC | -0.127
CCCGAGCC | 0.0989
CTAACACA | 0.158
GCTCCTTA | 0.00361
AACTACGA | 0.0864
TCGCCCCA | -0.264
AAGCACTA | -0.00736
TATTGGCA | 0.0614
CACTAGGA | -0.155
CTAGACAC | -0.0413
GTAGATTA | 0.292
TGCAGGAA | -0.0304
AAAAACCG | 0.122
